The values that follow come from article PMC4336329 (PLoS ONE, 2015).

Structures are written as SMILES. Among all 310,000 compounds or so, about 2,200 (0.71%) showed an effect of 50% or more. The effect is printed as a negative number. The list shows a part of the results.

The target in this assay is human ether-à-go-go-related gene (hERG) potassium channel (human, UniProt Q12809). Briefly: primary screen, population patch clamp on CHO cells stably expressing hERG.
Chain of human ether-à-go-go-related gene (hERG) potassium channel (Q12809 whole entry, looked up): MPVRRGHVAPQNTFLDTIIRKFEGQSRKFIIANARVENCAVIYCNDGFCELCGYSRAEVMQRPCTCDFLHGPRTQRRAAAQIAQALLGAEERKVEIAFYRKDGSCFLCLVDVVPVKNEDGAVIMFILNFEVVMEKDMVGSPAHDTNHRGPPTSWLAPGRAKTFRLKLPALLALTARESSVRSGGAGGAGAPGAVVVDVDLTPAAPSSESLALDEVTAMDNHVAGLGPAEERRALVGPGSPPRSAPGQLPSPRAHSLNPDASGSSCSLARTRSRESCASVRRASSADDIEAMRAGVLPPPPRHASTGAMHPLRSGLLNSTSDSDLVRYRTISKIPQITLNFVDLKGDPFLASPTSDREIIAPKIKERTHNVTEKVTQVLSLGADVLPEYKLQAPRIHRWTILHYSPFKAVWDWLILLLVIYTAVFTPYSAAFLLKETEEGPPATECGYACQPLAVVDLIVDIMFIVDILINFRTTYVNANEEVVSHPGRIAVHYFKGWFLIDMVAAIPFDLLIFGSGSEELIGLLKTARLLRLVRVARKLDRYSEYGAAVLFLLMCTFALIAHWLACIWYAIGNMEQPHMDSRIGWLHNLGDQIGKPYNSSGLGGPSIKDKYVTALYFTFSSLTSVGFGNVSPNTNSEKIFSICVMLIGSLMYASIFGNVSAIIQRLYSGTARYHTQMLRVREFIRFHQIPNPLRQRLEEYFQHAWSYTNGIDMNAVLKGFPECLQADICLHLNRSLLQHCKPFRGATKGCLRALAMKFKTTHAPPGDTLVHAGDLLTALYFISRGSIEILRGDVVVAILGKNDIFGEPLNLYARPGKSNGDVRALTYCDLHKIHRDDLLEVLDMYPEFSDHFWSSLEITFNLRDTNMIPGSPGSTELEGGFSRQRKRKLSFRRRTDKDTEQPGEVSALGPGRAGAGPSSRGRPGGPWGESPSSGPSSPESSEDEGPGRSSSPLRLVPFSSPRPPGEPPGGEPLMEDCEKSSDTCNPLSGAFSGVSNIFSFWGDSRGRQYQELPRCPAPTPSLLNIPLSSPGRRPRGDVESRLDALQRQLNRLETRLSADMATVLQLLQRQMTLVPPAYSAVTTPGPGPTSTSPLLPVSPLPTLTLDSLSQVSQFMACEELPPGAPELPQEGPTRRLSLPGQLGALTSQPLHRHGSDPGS
For the molecule `Cc1ccc(C(NC(=O)/C=C\c2ccc3c(c2)OCO3)C(=O)Nc2ccc3c(c2)OCO3)cc1` (stereo not shown), the “hERG current change (%, negative = inhibition) at 1uM” value was found to be 4.58%. In the case of `O=C(C1CCN(S(=O)(=O)c2cccc3nonc23)CC1)N1CCCCC1` it was 14.4%; in that of `COc1ccc(C(=O)C2CCCN(C(=O)c3cccc(Cn4cccn4)c3)C2)cc1F` (stereo not shown), -10.1%. With `O=C(Nc1cccc(-c2cn3c(n2)SCC3)c1)c1ccc2c(c1)OCO2`, the “hERG current change (%, negative = inhibition) at 1uM” value is recorded as 8.4%. Consider `Cc1ccc(NC(=O)Cc2cccs2)cc1Cl`, for which the “hERG current change (%, negative = inhibition) at 1uM” value is 15.5%.

With `N=C1C(c2ccccc2)=C(O)CN1c1ccccc1N1CCOCC1`, the “hERG current change (%, negative = inhibition) at 1uM” value came out at 7.03%. For `COc1ccccc1NC(=O)C1CCCN(c2cnccn2)C1` (stereo not shown), the “hERG current change (%, negative = inhibition) at 1uM” value is 14.1%. As for `CCOC(=O)C1=C(CSc2nc3c(cc2C#N)CCC3)OC(N)=C(C#N)C1c1ccccc1.CN(C)C=O` (stereo not shown), the “hERG current change (%, negative = inhibition) at 1uM” value turned out to be 13.6%. For the molecule `CN(C)S(=O)(=O)c1cccc(NC(=O)COC(=O)/C=C/c2cccs2)c1`, the “hERG current change (%, negative = inhibition) at 1uM” value stood at 3.98%.

In the case of `CC1(C)CC(=O)C([N+](=O)[O-])=C(NCCCC(=O)O)C1.O`, the “hERG current change (%, negative = inhibition) at 1uM” value came to 15.8%. With `CCOc1cc(/C=C(\C#N)c2[nH]nc(N)c2C#N)ccc1O`, the “hERG current change (%, negative = inhibition) at 1uM” value is -1.26%. As for `CCOc1ccc(CN(C)C(C)C(=O)Nc2ccc([N+](=O)[O-])cc2Cl)cc1OC` (stereo not shown), the “hERG current change (%, negative = inhibition) at 1uM” value was -4.68%. As to `CCOc1ccccc1C(=O)NC1CC2CCCC(C1)N2Cc1ccccc1` (stereo not shown), the “hERG current change (%, negative = inhibition) at 1uM” value is -32.9%. In the case of `Cc1cccc(C)c1NC(=O)Cn1nc(-c2ccccc2)nc1-c1ccccc1` it was 14.3%; in that of `Cc1c(C(=O)O)cnc2cc(-c3ccc(Cl)cc3)nn12`, 16.9%. In the case of `O=C(O)CCc1nc(-c2ccc(Cl)cc2)no1`, the “hERG current change (%, negative = inhibition) at 1uM” value was 10.2%. Turning to `COc1cccc2sc(N3CCN(c4nc5ccccc5s4)CC3)nc12`, the “hERG current change (%, negative = inhibition) at 1uM” value was determined as 7.25%. For the molecule `COc1ccc2cc(N=Cc3nc(-c4ccc(C)cc4)oc3O)cnc2c1`, the “hERG current change (%, negative = inhibition) at 1uM” value was determined as 4.77%.

`CCOc1ccccc1N(CC(=O)Nc1cccnc1)S(=O)(=O)c1ccc(C)cc1`: the “hERG current change (%, negative = inhibition) at 1uM” value amounted to 8.87%. Consider `CCCN1CCN(c2ncnc3c2nnn3Cc2ccccc2)CC1`, for which the “hERG current change (%, negative = inhibition) at 1uM” value is recorded as -3.01%. Take `O=C(C1=C(O)C(=O)N(CCCn2ccnc2)C1c1ccc(F)cc1)c1ccco1` (stereo not shown): the “hERG current change (%, negative = inhibition) at 1uM” value stood at 14.9%. Take `CCC/C(O)=C1\C(=O)CCCC1=NCCCCCC(=O)O`: the “hERG current change (%, negative = inhibition) at 1uM” value came out at 14.2%. As to `COc1ccc(-c2nn(-c3ccccc3)cc2/C=C\C(=O)N2CCOCC2)cc1[N+](=O)[O-]`, the “hERG current change (%, negative = inhibition) at 1uM” value was -19%.

Turning to `COC(=O)c1ccccc1NC(=O)C1CCCCC1C(=O)O` (stereo not shown), the “hERG current change (%, negative = inhibition) at 1uM” value was found to be 5.64%. With `O=C(NC1=NCCS1)c1ccccc1`, the “hERG current change (%, negative = inhibition) at 1uM” value stood at 21%. For the molecule `Cc1cc(Cl)c(S(=O)(=O)N2CCN(c3ccccn3)CC2)cc1OCC(=O)NC1CCCCC1`, the “hERG current change (%, negative = inhibition) at 1uM” value is recorded as -15.2%. Turning to `CC(=O)Nc1coc2ccc(Br)cc12`, the “hERG current change (%, negative = inhibition) at 1uM” value is recorded as 3.95%. On to `CN(C(=O)COc1ccc(Br)cc1Cl)C1CCCCC1`, for which the “hERG current change (%, negative = inhibition) at 1uM” value is listed as 0.251%.

`CCC(=O)N1CCN(c2nnc(-c3ccccc3)c3ccccc23)CC1`: the “hERG current change (%, negative = inhibition) at 1uM” value is -2.8%. As to `CCCOc1ccc(C(=O)NCc2cccnc2)cc1`, the “hERG current change (%, negative = inhibition) at 1uM” value came to 8.6%.

For `CN(CC(=O)Nc1ccc(F)cc1)C(=O)c1ccncc1`, the “hERG current change (%, negative = inhibition) at 1uM” value was found to be 11%.

`COC(=O)Cn1cc(/C=N/NC(=O)c2ccc(C#N)cc2F)c2ccccc21`: the “hERG current change (%, negative = inhibition) at 1uM” value is given as 3.73%.

On to `CCOC(=O)N1CCC(N2C(=O)c3ccccc3C2=O)CC1`, for which the “hERG current change (%, negative = inhibition) at 1uM” value is recorded as 5.52%. To `Cc1ccc(-c2nc(N)sc2CC(=O)OCC(=O)NC2CCCC(C)C2C)cc1` (stereo not shown) belongs 5.55%. In the case of `O=C(NNS(=O)(=O)c1ccc(C(F)(F)F)cc1)c1cnn(-c2ccccc2)c1C(F)(F)F` it was 5%; in that of `COc1cccc2c1c(NC(=O)Nc1ccc(F)cc1F)nn2C`, 12.1%; in that of `CCN(CC)CCN(C)C1CCC(c2ccccc2)CC1` (stereo not shown), 15.4%. Consider `S=C1N(c2ccccc2)C(c2ccc(Cl)cc2)N2CCCN12` (stereo not shown), for which the “hERG current change (%, negative = inhibition) at 1uM” value is 3.34%. To `CCOC(=O)c1c(Cl)c(C)nn1-c1nc(OC)cc(OC)n1` belongs 6.97%; to `CC1CN(Cc2nc3c(c(=O)n(C)c(=O)n3C)n2CC(=O)c2ccccc2)CC(C)O1` (stereo not shown), 16.8%; to `COc1ccc(CC(NC(C)=O)C(=O)NC2CCN(S(=O)(=O)c3ccccc3)CC2)cc1OC` (stereo not shown), 13.2%. As to `Cc1ccc(NC(=O)N2CCCCC2)cc1NC(=O)N1CCCCC1`, the “hERG current change (%, negative = inhibition) at 1uM” value was determined as 18%. On to `CNP(=S)(NC)OCCOc1ccc(OC)cc1`, for which the “hERG current change (%, negative = inhibition) at 1uM” value is reported as 8.86%. In the case of `Cc1ccccc1OCC(=O)O/N=C(\N)Cc1cccs1` it was 12.3%; in that of `C=CCSc1nnc(-c2ccccc2NC(=O)CC)c(=O)[nH]1`, 6%. Regarding `COc1cccc(NS(=O)(=O)Cc2ccccc2)c1`, the “hERG current change (%, negative = inhibition) at 1uM” value amounted to 12.8%. In the case of `Oc1ccc(-c2csc(Nc3ncccn3)n2)c(O)c1` it was 16.2%; in that of `CCc1ccc(OCC(=O)N2CCc3ccccc32)cc1`, 9.75%.

For the molecule `Cc1ccc(-c2nn(-c3ccccc3)cc2NC(=O)c2ccccc2)cc1`, the “hERG current change (%, negative = inhibition) at 1uM” value is listed as 10.8%. `O=C(NCCCc1nc2ccccc2[nH]1)c1ccc(F)cc1`: the “hERG current change (%, negative = inhibition) at 1uM” value is listed as 13.7%. Take `O=C(c1cccc(Cl)c1)C1CCCN(Cc2ccon2)C1` (stereo not shown): the “hERG current change (%, negative = inhibition) at 1uM” value is reported as 10.2%. In the case of `CC(=O)Nc1ccc(CN2CCCN(C)CC2)cc1` it was 14.6%; in that of `CC(=O)c1ccccc1NC(=O)COC(=O)CN1C(=O)C2CCCCC2C1=O` (stereo not shown), 0.614%. In the case of `O=C(/C=C/c1ccccc1[N+](=O)[O-])NCc1ccccc1Cl` it was 17%; in that of `O=C(N/N=C\c1ccc([N+](=O)[O-])s1)C1COc2ccccc2O1` (stereo not shown), -13.1%. Take `Cc1cc(C)cc(NC(=O)N2CCC(C(=O)c3ccc(F)cc3)CC2)c1`: the “hERG current change (%, negative = inhibition) at 1uM” value is recorded as -10.3%. As for `COC(=O)CNC(=O)c1nn(-c2cccc(OC)c2)c(=O)c2ccccc12`, the “hERG current change (%, negative = inhibition) at 1uM” value is on record as 9.98%. As for `COc1cccc(-n2c(Cc3cc(=O)[nH]c(=O)[nH]3)nnc2SCC(=O)N2CCCC2)c1`, the “hERG current change (%, negative = inhibition) at 1uM” value was found to be 4.29%.
